Test results: the antibiotic and cytotoxicity screens of Wong et al. (2023)
The other results are listed elsewhere or left out.

What was measured:
HSkMC = human skeletal muscle cells; test: cytotoxicity call (relative viability < 0.9); settings: 10 µM
HepG2 = test: cytotoxicity call (relative viability < 0.9); settings: 10 µM
S. aureus RN4220 = test: growth inhibition call (relative growth <= 0.2); settings: 50 µM

SMILES	cytotoxicity call (HSkMC)	cytotoxicity call (HepG2)	growth inhibition call (S. aureus RN4220)
CC(C)(C)c1cc(NC(=O)Nc2ccc(Oc3ccnc4nc(O)cnc34)cc2F)n(-c2ccccc2)n1	active	inactive	inactive
C[C@@H]1O[C@@H](O[C@H]2[C@H](O[C@H]3[C@H](O)[C@@H](O[C@@H]4O[C@H](CO)[C@@H](O)[C@H](O)[C@H]4O)[C@H](O[C@H]4CC[C@]5(C)[C@H]6CC[C@]78OC[C@@]9(CCC(C)(C)C[C@@H]97)[C@H](O)C[C@@]8(C)[C@]6(C)CC[C@H]5C4(C)C)O[C@@H]3C(=O)O)O[C@H](CO)[C@H](O)[C@@H]2O)[C@H](O)[C@H](O)[C@H]1O	active	active	inactive
C[C@@H]1CN([C@@H](C)CO)C(=O)c2cccc(NC(=O)c3nc4ccccc4s3)c2O[C@@H]1CN(C)S(=O)(=O)c1cn(C)cn1	inactive	inactive	inactive
O=c1c(O)c(-c2cc(O)c(O)c(O)c2)oc2cc(O)cc(O)c12	inactive	inactive	inactive
C[C@H](CO)N1C[C@H](C)[C@H](CN(C)C(=O)NC2CCCCC2)Oc2c(NC(=O)C3CC3)cccc2C1=O	inactive	inactive	inactive
COc1ccc(CN(C)C[C@@H]2OCCCC[C@H](C)Oc3ccc(NS(=O)(=O)c4ccccc4)cc3C(=O)N([C@H](C)CO)C[C@@H]2C)cc1	inactive	inactive	inactive
C1CCC(C(C[C@H]2CCCCN2)C2CCCCC2)CC1	inactive	active	active
CO[C@@H]1CN(C)C(=O)c2cc(NS(=O)(=O)CC(F)(F)F)ccc2OC[C@@H](C)N(C(=O)NC(C)C)C[C@@H]1C	inactive	inactive	inactive
Cc1ccc(S(=O)(=O)Nc2cccc3c2O[C@@H](CN(C)S(=O)(=O)c2cn(C)cn2)[C@H](C)CN([C@@H](C)CO)C3=O)cc1	inactive	inactive	inactive
CC(=O)N1CCN(c2c(C)cnc3c2c(=O)n(CC(N)=O)c(=O)n3C)CC1	inactive	inactive	inactive
COc1ccc(Cc2cnc(N)nc2N)cc1OC	inactive	inactive	active
Cc1noc(C)c1NC(=O)N(C)C[C@H]1Oc2ccc(NC(=O)Nc3cccc4ccccc34)cc2CC(=O)N([C@@H](C)CO)C[C@H]1C	inactive	inactive	inactive
O=C(C[C@@H]1CC[C@@H]2[C@H](COC[C@H](O)CN2C(=O)c2cnccn2)O1)N1CCN(c2ccccc2)CC1	inactive	inactive	inactive
C[C@@H]1CN([C@@H](C)CO)C(=O)Cc2cc(NC(=O)Cc3cn(C)c4ccccc34)ccc2O[C@@H]1CN(C)Cc1ccc(-c2ccccc2)cc1	inactive	active	inactive
C[C@@H]1CCCCO[C@@H](CN(C)Cc2ccc(C(=O)O)cc2)[C@H](C)CN([C@@H](C)CO)C(=O)c2cc(NC(=O)CCC(F)(F)F)ccc2O1	inactive	inactive	inactive
Cc1ccccc1S(=O)(=O)N1C[C@@H](O)COC[C@H]2O[C@H](CC(=O)N3CCOCC3)CC[C@@H]21	inactive	inactive	inactive
Cl.NCCCC(N)C(=O)O (stereo not given)	inactive	active	inactive
COc1ccc(S(=O)(=O)N(C)C[C@H]2Oc3ccc(NS(=O)(=O)c4ccc(C)cc4)cc3C(=O)N([C@@H](C)CO)C[C@@H]2C)cc1	inactive	inactive	inactive
C[C@@H]1CCCCO[C@@H](CN(C)Cc2ccc(C(=O)O)cc2)[C@@H](C)CN([C@H](C)CO)C(=O)c2cc(NC(=O)C3CCCCC3)ccc2O1	inactive	inactive	inactive
CCOC(=O)c1ccc(OCCN2C[C@H](O)[C@@H](O)[C@H](O)[C@H]2CO)cc1	inactive	inactive	inactive

SMILES	cytotoxicity call (HSkMC)	cytotoxicity call (HepG2)	growth inhibition call (S. aureus RN4220)
C=C(CO)C(=O)O[C@H]1C[C@@]2(C)OC(=O)/C(=C/C)[C@]2(O)CC[C@@]2(C)CC(=O)[C@]1(C(=C)C(=O)OC)O2	inactive	inactive	inactive
NCC[C@H]1CC[C@@H](NC(=O)C2CCCCC2)[C@@H](CO)O1	inactive	inactive	inactive
Nc1cc(CO)ccn1	inactive	inactive	inactive
C[C@H]1CCCCO[C@H](CN(C)C(=O)Nc2ccc(C(F)(F)F)cc2)[C@@H](C)CN([C@@H](C)CO)C(=O)c2cc(NS(=O)(=O)c3cn(C)cn3)ccc2O1	inactive	inactive	inactive
CC(C)(C)OC(=O)C[C@@H]1CC=CC[C@@H](CC(=O)NCCO)C(=O)N[C@@H](Cc2ccccc2)COC1=O	inactive	inactive	inactive
C[C@H](CO)N1C[C@H](C)[C@H](CN(C)C(=O)C2CCOCC2)Oc2cc(C#Cc3ccncc3)ccc2S1(=O)=O	inactive	inactive	inactive
CC(Cc1ccc(O)c(O)c1)(NN)C(=O)O (stereo not given)	inactive	active	inactive
C[C@H]1CN([C@@H](C)CO)C(=O)Cc2cc(NC(=O)Cn3cnnn3)ccc2O[C@H]1CN(C)Cc1ccc(-c2ccccc2)cc1	inactive	inactive	inactive
C[N+](C)(C)CCOC(N)=O	inactive	inactive	inactive
CC(C)(C)S(=O)N1Cc2cc(C(=O)N3CCN(Cc4ccccc4)CC3)nc(-c3cccc(-c4cc5ccccc5o4)c3)c2[C@H]1CCO (stereo not given in full)	active	active	inactive
O=C(C[C@@H]1CC[C@H]2[C@@H](COC[C@H](O)CN2Cc2ccccc2F)O1)N[C@H]1CCN(Cc2ccccc2)C1	inactive	inactive	inactive
COc1ccc(S(=O)(=O)N(C)C[C@H]2Oc3c(NC(=O)c4cnccn4)cccc3C(=O)N([C@H](C)CO)C[C@H]2C)cc1	inactive	inactive	inactive
C[C@@H]1CCCCO[C@@H](CN(C)Cc2ccccc2)[C@H](C)CN([C@H](C)CO)C(=O)c2cc(NC(=O)Nc3cccc4ccccc34)ccc2O1	inactive	inactive	inactive
C[C@@H]1CN([C@@H](C)CO)C(=O)Cc2cc(NC(=O)C3CC3)ccc2O[C@@H]1CN(C)C(=O)Nc1ccccc1	inactive	inactive	inactive
C[C@@H]1CCCCO[C@H](CN(C)S(=O)(=O)c2cccs2)[C@@H](C)CN([C@H](C)CO)C(=O)c2cc(NC(=O)CCC(F)(F)F)ccc2O1	inactive	inactive	inactive
CCC(=O)O[C@@H](OP(=O)(CCCCc1ccccc1)CC(=O)N1C[C@H](C2CCCCC2)C[C@H]1C(=O)O)C(C)C (stereo not given in full)	inactive	inactive	inactive
C[C@@H]1CN([C@H](C)CO)C(=O)c2cc(NC(=O)NC3CCCCC3)ccc2O[C@@H](C)CCCCO[C@@H]1CN(C)Cc1ccc2c(c1)OCO2	inactive	active	inactive
CN(C)C(=O)C1CCNCC1	inactive	inactive	inactive
C[C@@H]1CCCCO[C@H](CN(C)Cc2ccncc2)[C@@H](C)CN([C@@H](C)CO)C(=O)c2cc(NC(=O)c3ccccc3)ccc2O1	inactive	inactive	inactive
Cc1noc(C)c1NC(=O)N(C)C[C@@H]1OCCCC[C@@H](C)Oc2ccc(NC(=O)Nc3ccc4c(c3)OCO4)cc2C(=O)N([C@H](C)CO)C[C@@H]1C	inactive	inactive	inactive

SMILES	cytotoxicity call (HSkMC)	cytotoxicity call (HepG2)	growth inhibition call (S. aureus RN4220)
CCC(=O)c1ccc(Cl)s1	inactive	inactive	inactive
COCC(=O)N1C[C@H](C)[C@H](OC)CN(C)C(=O)c2cc(NC(=O)Nc3cccc(F)c3)ccc2OC[C@H]1C	inactive	inactive	inactive
Cc1ccc(S(=O)(=O)N(C)C[C@@H]2Oc3ccc(NC(=O)C4CC4)cc3C(=O)N([C@@H](C)CO)C[C@@H]2C)cc1	inactive	inactive	inactive
CN(C)CCC=C1c2ccccc2CCc2ccccc21.Cl	inactive	active	inactive
C[C@@H]1CN([C@H](C)CO)C(=O)c2cc(N(C)C)ccc2O[C@H]1CN(C)S(C)(=O)=O	inactive	inactive	inactive
O=C(C[C@H]1CC[C@H]2[C@@H](COC[C@@H](O)CN2S(=O)(=O)c2cccc(Cl)c2)O1)NCc1ccc2c(c1)OCO2	inactive	inactive	inactive
O=C(O)/C=C\C(=O)O	inactive	inactive	inactive
COc1ccc(N2C(=O)C[C@@H](c3ccc(Br)cc3)[C@H]2C(=O)Nc2cccc3cccnc23)cc1	inactive	inactive	inactive
Cc1ccc(C(=O)N(CCCN)[C@@H](c2oc3cc(Cl)ccc3c(=O)c2Cc2ccccc2)C(C)C)cc1	active	active	inactive
C[C@H]1CN([C@@H](C)CO)C(=O)c2cc(NS(=O)(=O)c3ccc(Cl)cc3)ccc2O[C@@H]1CN(C)Cc1ccc(Cl)c(Cl)c1	active	active	inactive
O=c1[nH]c(=O)c2ccccc2[nH]1	inactive	inactive	inactive
CC(C)NNC(=O)c1ccncc1	inactive	inactive	inactive
C[C@H](C[C@H](N)C(=O)O)C(=O)O	inactive	inactive	inactive
C#CCN(O[C@@H](/C=C/[C@@H](O)Cc1ccccc1)C1CC1)[C@@H](Cc1ccc(-n2cc(CCC(=O)NO)nn2)cc1)C(=O)OC	inactive	inactive	inactive
CCOC(=O)C1CCNCC1	inactive	inactive	inactive
O=C(C[C@H]1C[C@H]2c3cc(NC(=O)Nc4ccc(C(F)(F)F)cc4)ccc3O[C@H]2[C@@H](CO)O1)NCCc1ccccc1	inactive	inactive	inactive
COc1cc2c(NC3CCN(C(C)C)CC3)nc(N3CCC(F)(F)CC3)nc2cc1OCCCN1CCCC1	active	active	inactive
Nc1ccc(Oc2ccc3ccccc3c2Cl)c(Cl)c1	inactive	inactive	active
O=C([O-])CCCc1ccccc1.[Na+]	inactive	inactive	inactive
COc1ccc(CN(C)C[C@H]2OCCCC[C@@H](C)Oc3ccc(NS(=O)(=O)c4cccs4)cc3C(=O)N([C@H](C)CO)C[C@@H]2C)cc1	inactive	inactive	inactive
